# Laboratory results as given in ChEMBL document CHEMBL1201862, “PubChem BioAssay data set” (2004).
# System: NCI-H322M
# Assay: NCI-60 cell line screen, 48 h
row,SMILES,GI50
1,NC1=NCCN1CC(=O)O [CYCLOCREATINE],inactive: > 1000 µM
2,CCCCCCCCc1cc2c(O)c(c1)Cc1cc(CCCCCCCC)cc(c1O)Cc1cc(CCCCCCCC)cc(c1O)Cc1cc(CCCCCCCC)cc(c1O)Cc1cc(CCCCCCCC)cc(c1O)Cc1cc(CCCCCCCC)cc(c1O)C2,inactive: > 100 µM
3,Cc1cccc2ns[s+]c12,inactive: > 100 µM
4,c1ccc2c(c1)SCCC2NC1=NCCO1 (centres undefined),inactive: > 100 µM
5,Cc1cccc2c1c1ccc3c(c1n2C)C(=O)C=CC3=O,inactive: 16.7 µM
6,O=c1cc(NNc2cccc(F)c2)[nH]c(=S)[nH]1,inactive: > 100 µM
7,COC(=O)c1cc2/c(=N/O)c3ccccc3sc2o1,inactive: > 100 µM
8,O=[N+]([O-])/C(Cl)=C/C(=C1/Nc2ccccc2O1)[N+](=O)[O-],inactive: 16 µM
9,c1ccc2c(c1)SCCCSCCCS2,inactive: > 100 µM
10,CCOC(=O)CC1COc2ccc3c(c21)OCO3 (centres undefined),inactive: > 100 µM
11,N=c1oc2c(Cl)cc(Cl)cc2cc1C(=O)Nc1ccccn1,inactive: > 100 µM
12,c1ccc([B-]2(c3ccccc3)NCCCO2)cc1,inactive: 84.9 µM
13,O=C1Oc2ccccc2C(=O)/C1=C\Nc1nc(-c2ccccc2)cs1,inactive: 36.9 µM
14,COC(=O)[C@]12CC[C@H]3CN(C(=O)OCc4ccccc4)[C@H]([C@H]31)[C@H](c1ccco1)N2,inactive: > 100 µM
15,O=C(/C=C/c1ccc2c(c1)OCO2)NCc1ccco1,inactive: > 100 µM
16,COc1cc(Oc2nc3ccccc3nc2C(=O)O)cc(OC)c1OC,inactive: > 100 µM
17,CC(=O)C(=C(c1ccccc1)c1ccccc1)c1ccccc1,inactive: > 100 µM
18,NC(=O)CC(N)c1nnn[nH]1 (centres undefined),inactive: > 100 µM
19,COc1cc2c(cc1OC)C(=O)N(NC1=NCCN1)C2=O,inactive: > 100 µM
20,C/C(=N\Nc1nc2ccccc2[nH]1)c1cc2ccccc2cn1,active: 0.0611 µM
21,CCOc1ccc(-n2nnc3c(N)nc(N)nc32)cc1,inactive: > 100 µM
22,CC1=CC(c2ccccc2)OP1(=O)c1ccccc1 (centres undefined),inactive: > 100 µM
23,Nc1ccn(C2OC(COP(=O)(O)O)C(O)C2O)c(=O)n1 (centres undefined),inactive: 74.6 µM
24,CCNc1ccc2c(c1)Cc1ccccc1-2,inactive: > 100 µM
25,NC(=S)N/N=C1\CCCC1C(O)(C(F)(F)Cl)C(F)(F)Cl (centres undefined),inactive: > 10 µM

row,SMILES,GI50
1,CC(C)N/C(=N\C#N)NS(=O)(=O)c1cnccc1NC1CCCCCCC1,inactive: > 100 µM
2,Cc1ccc(C(=O)/C=C2\Nc3cccnc3NC2=O)cc1,inactive: > 100 µM
3,CC(C(=O)COCc1ccccc1)P1(=O)OC(C)(C)CN1C(C)(C)C (centres undefined),inactive: > 100 µM
4,COc1ccc2oc(S(=O)(=O)N3CC(CCl)c4ccc(N)cc43)cc2c1 (centres undefined),inactive: 1.23 µM
5,C/C(=N\NC(=S)NCc1ccccc1)c1nc2cccnc2[nH]1,inactive: 10.3 µM
6,COC(=O)C1CCC(=O)N1C(c1ccc(OC)cc1)c1cc(OC)c(OC)c(OC)c1 (centres undefined),active: 0.525 µM
7,Cc1cc(=O)oc2cc3c(cc12)Oc1ccccc1O3,inactive: > 100 µM
8,CC(=O)c1ccc(NC(=O)C(=O)C(C#N)CC(C)(C)C=O)cc1 (centres undefined),inactive: > 100 µM
9,O=C1N(C2CCCCC2)CC12CCCCC2,inactive: > 100 µM
10,c1cc(NNc2cccc(-c3nnn[nH]3)c2)cc(-c2nnn[nH]2)c1,inactive: > 100 µM
11,CN1C2CCC1CC(=CCOC(c1ccc(F)cc1)c1ccc(F)cc1)C2,inactive: 14.8 µM
12,COc1cc2c(cc1OC)C1[C@@H](c3ccccc3)OCN1CC2 (some centres undefined),inactive: > 100 µM
13,Cc1cc(O)nc(NN2C(Cl)C(=O)C2c2ccco2)n1 (centres undefined),inactive: 35.9 µM
14,C=C1C(=O)O[C@H]2[C@H]3O[C@@H](C[C@@H]12)[C@](C)(O)CC[C@@H]1O[C@@]1(C)CCC[C@H]3C,inactive: 29.6 µM
15,C=C1CC[C@@H](C)[C@](C)(CCc2ccoc2)C/C=C\C=C/1C(=O)O,inactive: 39.4 µM
16,CCN(CC)CCC1CCCCN1CC(=O)N1c2cc(Cl)ccc2NC(=O)CC1C (centres undefined),inactive: > 100 µM
17,Cc1ccc(-n2nncc2[Si](C)(C)C)s1,inactive: > 100 µM
18,O=c1[nH]nc(Cn2c3ccc(Br)cc3c3nc4ccccc4nc32)n1C1CCCCC1,inactive: > 100 µM
19,CN1C(=O)N/C(=C\c2ccc(S(=O)(=O)N/N=C/c3ccccc3)cc2)C1=O,inactive: 53.8 µM
20,CCCCCCCCCCCOc1ccc(C(=O)C(=O)c2ccc(OCCCCCCCCCCC)c(OCCCCCCCCCCC)c2)cc1OCCCCCCCCCCC,inactive: > 100 µM
21,C=C1CC2[C@H](C)C(=O)CCC2(C)C2=C1C1CCC(C(C)CCC(=C)C(C)C(=O)O)C1(C)CC2=O (some centres undefined),inactive: > 100 µM
22,CN1C2C=CC(=O)C1C(C#N)C2 (centres undefined),inactive: 68.2 µM
23,O=S(=O)(Nc1nc2ccccc2nc1N1CCCCCC1)c1ccccc1,inactive: > 100 µM
24,CC(=N\N)/C(C)=N/N=C(C)/C(C)=N/N=C(C)/C(C)=N/N=C(C)/C(C)=N/N,inactive: > 100 µM

#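 Each compound was tested at five concentrations against cells in 96-well plates for 48 hours. Abbreviation: GI50, concentration required for 50% inhibition of growth.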 Active and inactive are the calls of the source. No stated cut-off is given here; in the data, active = GI50 up to about 1.1 µM and inactive = higher.
